Laboratory results: PubChem BioAssay AID662 (National Center for Advancing Translational Sciences (NCATS), 2007)
Out of some 71,000 compounds screened, about 1,800 (2.5%) were called active. The inconclusive results got no clear call from the source; some entries with a clear call stand among them for comparison. The call rests on the fitted dose curve; in most records, active means well fitted activation curve with a large enough effect in the signal ratio, with a control signal flat (not every such curve was filed as active); inconclusive means small, poorly fitted or top-dose-only effect, or effect the other way, or a change in a side signal; inactive means flat fitted curve, though single readings scatter; the % refers to the signal ratio. Potencies beside an inconclusive call are fits to weak or partial responses and may not hold up.

Test: Cell signaling CRE-BLA (Fsk stim); on activity change, negative = inhibition: % of control where 0% means no effect
Settings: CHO CRE-bla reporter (cAMP response element driving beta-lactamase), forskolin EC10, beta-lactamase ratio; activity change, negative = inhibition: at 38.2 µM (top of the series) unless noted
In short: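 Modulation of forskolin signalling: compounds in titration series added with EC10 NKH 477 to CHO cells carrying a CRE-driven beta-lactamase reporter, 3 h, 37C. CCF4 FRET ratio (460/530 nm, ex 405 nm) gives %activity and AC50.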
Potency means the concentration at half of the fitted maximal effect; tags describe the fitted curve by direction and shape.

SMILES | Potency | activity change, negative = inhibition
c1ccc(-c2nn3c(-c4ccncc4)nnc3s2)nc1 | inconclusive: 25.1 µM [rising, single point] | –
CN(C)c1ncc2nc(CCc3ccccc3)c(=O)n(Cc3cccs3)c2n1 | active: 10 µM | –
O=C(O)CCC(=O)c1ccc(Cl)cc1 | – | inactive: -9.07% [at 7.6 µM]
CCn1c(SCC(=O)Nc2ccc3c(c2)OCO3)nnc1-c1cnccn1 | – | inconclusive: 16.7%
Cc1cccc(-c2nnc3sc(-c4ccccc4C)nn23)c1 | – | inconclusive: -16.7%
N#Cc1nc(-c2ccccc2F)oc1NCCN1CCOCC1 | inconclusive: 10 µM [rising, single point] | –
CCN(CC)CCN1C(=O)C(=O)/C(=C(/O)c2ccc(OC)c(OC)c2)C1c1ccccn1 (centres undefined) | inconclusive: 7.94 µM [rising, partial curve] | –
Cc1ccc(OCC(=O)Nc2ccc(N3CCCC3)cc2)cc1C | – | inconclusive: 15.9% [at 7.6 µM]
CC(C)NC[C@@H](O)c1ccc(O)c2ncccc12 | – | inactive: 10.4% [at 7.6 µM]
COc1ccc(Cn2nnnc2CN2CCC(c3nc4ccccc4s3)CC2)cc1 | inconclusive: 10 µM [rising, single point] | –
N#CC1=C(N)Oc2n[nH]c(-c3cccs3)c2C1c1ccco1 (centres undefined) | – | inconclusive: -17.5%
COc1cc(-c2nnc(CSc3nnc4nc(C)cc(C)n34)o2)cc(OC)c1OC | inconclusive: 15.8 µM [rising, single point] | –
CC(C)OC(=O)C1C(=O)CC(C)(O)C(C(=O)OC(C)C)C1c1cccc(O)c1 (centres undefined) | – | inactive
Fc1ccc(Cn2nnnc2CN2CCc3ccccc3C2)cc1 | – | inconclusive: -21.1%
CCS(=O)(=O)N1CCCC(C(=O)NCCCOC(C)C)C1 (centres undefined) | – | inactive
COc1ccc(CNC(=O)COC(=O)c2n[nH]c3ccccc23)cc1OC | inconclusive: 12.6 µM [rising, single point] | –
CN(C)C(=O)c1ccc(-c2nc(Nc3ccncc3)c3ccccc3n2)cc1 | active: 12.6 µM | –
CCOC(=O)c1c(C)oc2c1c(C(c1cccnc1)N1CCN(C)CC1)c(O)c1ccccc12 (centres undefined) | – | inactive
CCC(CC)C(=O)Nc1cccc(C(=O)N2CCCCCC2)c1 | – | inconclusive: -8.64%
Nc1nc(-c2ccc(Cl)cc2Cl)cn1N | – | inactive
C=C(C)Cn1c(CCNC(=O)C(C)C)nc2ccccc21 | – | inactive
CN1CCN(C(=O)Nc2cccc3ccccc23)CC1 | – | inactive
Nc1nc2c(c3c1c(=O)oc1ccccc13)CCCCC2 | inconclusive: 3.16 µM [rising, partial curve] | –
O=C(c1cc2c(s1)-c1ccccc1OC2)N1CCCC1 | – | inconclusive: -19.3%
